Test results published in article PMC4536226.
Numbering of substitutions follows the chain as printed. These are yes or no findings as the source states them, for the method shown. In cells and extracts the contact can be indirect. Some binding calls cover weakened binding; strength is not graded here. Tags and fused reporters may be left off the sequences shown. Blank lines part the entries; values can stand above or below the binder they belong to.

Legend:
Assay in all cases: co-IP; S2R+ cells co-transfected with HA-Fu variants, V5-Su(fu) and Myc-Cos2, and with Fu 3'UTR dsRNA to knock down endogenous Fu; IP with anti-HA matrix; with or without HhN stimulation (Fig 2C); lysis in PBS with 1.0% Triton X-100
Fu301-805 (Drosophila) = target: T1, Fu301-805 (Drosophila) (UniProt P23647)
T1 sequence: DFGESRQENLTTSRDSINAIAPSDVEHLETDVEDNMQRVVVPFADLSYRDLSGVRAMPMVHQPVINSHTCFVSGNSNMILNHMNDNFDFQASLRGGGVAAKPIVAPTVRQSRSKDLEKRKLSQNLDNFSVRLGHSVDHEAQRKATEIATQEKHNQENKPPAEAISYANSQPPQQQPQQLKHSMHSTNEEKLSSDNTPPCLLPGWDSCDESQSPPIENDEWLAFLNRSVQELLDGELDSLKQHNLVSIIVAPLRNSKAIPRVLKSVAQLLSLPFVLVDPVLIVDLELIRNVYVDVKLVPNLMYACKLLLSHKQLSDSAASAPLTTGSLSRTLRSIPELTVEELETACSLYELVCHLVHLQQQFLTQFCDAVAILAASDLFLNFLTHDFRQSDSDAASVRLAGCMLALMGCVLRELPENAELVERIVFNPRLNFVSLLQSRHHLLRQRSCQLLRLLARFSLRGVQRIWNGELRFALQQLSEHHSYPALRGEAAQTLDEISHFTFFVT

[1] = target: T2, Fu^K33AΔ361–390 (Drosophila) (UniProt P23647)
T2 sequence: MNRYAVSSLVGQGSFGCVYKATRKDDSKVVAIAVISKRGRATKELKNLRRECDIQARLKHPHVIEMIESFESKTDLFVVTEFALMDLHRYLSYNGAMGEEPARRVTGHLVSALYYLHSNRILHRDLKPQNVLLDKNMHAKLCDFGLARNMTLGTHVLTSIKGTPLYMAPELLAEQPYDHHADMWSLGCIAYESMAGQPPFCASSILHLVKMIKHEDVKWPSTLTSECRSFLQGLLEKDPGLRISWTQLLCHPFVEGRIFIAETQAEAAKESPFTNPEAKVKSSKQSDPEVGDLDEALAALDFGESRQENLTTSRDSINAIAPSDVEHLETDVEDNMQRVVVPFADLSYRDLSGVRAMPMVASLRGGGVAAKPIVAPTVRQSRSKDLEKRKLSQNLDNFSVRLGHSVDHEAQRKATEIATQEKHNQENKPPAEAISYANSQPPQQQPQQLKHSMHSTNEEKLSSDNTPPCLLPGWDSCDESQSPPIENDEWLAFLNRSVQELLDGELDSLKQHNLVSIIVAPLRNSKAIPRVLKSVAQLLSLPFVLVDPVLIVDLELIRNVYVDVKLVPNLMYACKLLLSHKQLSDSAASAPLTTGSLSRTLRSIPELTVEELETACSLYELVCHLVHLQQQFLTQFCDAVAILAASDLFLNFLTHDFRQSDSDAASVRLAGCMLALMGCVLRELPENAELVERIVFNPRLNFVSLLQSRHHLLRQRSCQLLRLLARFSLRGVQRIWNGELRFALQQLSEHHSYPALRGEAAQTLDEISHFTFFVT

FuΔ361–390 (Drosophila) = target: T3, FuΔ361–390 (Drosophila) (UniProt P23647)
T3 sequence: T2 sequence with A33K

- binding (Fu301-805 (Drosophila)): binds
- binding [1]: binds
- binding (FuΔ361–390 (Drosophila)): binds
B1: Myc-tagged Cos2 (Myc-Cos2) (protein, UniProt O16844 1-1201)
chain: MEIPIQVAVRIFPHRELKDLLRSFGPTEPKKDAQAVDEGADSKDSEAQVPAAEKDNPSISETDPNGNAEQDSAADSKTIPDANGNDSGQKDYPDSAYCVQAIPISASALGLPSALPGGDPMDSIAAGLIQVGPHTVPVTHALPSSSSQEQVYHQTVFPLITLFLEGFDASVVTYGQRGQGKSYTLYGNVQDPTLTDSTEGVVQLCVRDIFSHISLHPERTYAINVGFVEICGGDVCDLLGMGNIHCTNVDAVFHWLQVGLSARQSLPAHTLFTLTLEQQWVSKEGLLQHRLSTASFSDLCGTERCGDQPPGRPLDAGLCMLEQVISTLTDPGLMYGVNGNIPYGQTTLTTLLKDSFGGRAQTLVILCVSPLEEHLPETLGNLQFAFKVQCVRNFVIMNTYSDDNTMIVQPAEPVPESNSSAGPLSQAGPGDNFGLQFAASQWSKLVTNAEGLFSKLIDSKLITEVEKEQIEEWLFLKQECEECLSSTEAMRQQKQLVPILEAEEPEDVNSEAANSESPNSDNENDTDNESHRPDLDDKIESLMEEFRDKTDALILEKHAEYLSKHPKAVMQSQDREIEAQPPEENGDDRKVSIGSRRRSVQPGASLSTAELAMLNRVASQQPPPPIDPESVVDPLESSSGEGIRQAALAAAAATAPIEQLQKKLRKLVAEIEGKQRQLREIEETIQVKQNIIAELVKNSDTRSHAKQRFHKKRAKLEAECDKAKKQLGKALVQGRDQSEIERWTTIIGHLERRLEDLSSMKHIAGESGQKVKKLQQSVGESRKQADDLQKKLRKECKLRCQMEAELAKLRESRETGKELVKAQGSPEQQGRQLKAVQARITHLNHILREKSDNLEEQPGPEQQETLRHEIRNLRGTRDLLLEERCHLDRKLKRDKVLTQKEERKLLECDEAIEAIDAAIEFKNEMITGHRSIDTSDRIQREKGEQMLMARLNRLSTEEMRTLLYKYFTKVIDLRDSSRKLELQLVQLERERDAWEWKERVLSNAVRQARLEGERNAVLLQRQHEMKLTLMLRHMAEETSASSASYGERALAPACVAPPVQASSDFDYDHFYKGGGNPSKALIKAPKPMPTGSALDKYKDKEQRSGRNIFAKFHVLTRYASAAAAGSSGSTAEESTALIESTTTATATTTSTTTTGAVGKVKDKALVSFRPEQLKRLMPAPTATKVTRQKNKIIIQDASRRN

- binding (Fu301-805 (Drosophila)): binds weakly
- binding [1]: no binding
- binding (FuΔ361–390 (Drosophila)): no binding
B2: V5-tagged Suppressor of fused (V5-Su(fu)) (protein, UniProt Q9VG38 1-468)
chain: MAEANLDKKPEVKPPPGLKAIIDHLGQVYPNQPNPLQVTTLLKYWLGGQDPLDYISMYNYPGDVDRNVPPHWHYISFGLSDLHGDERVHLREEGVTRSGMGFELTFRLAKTEIELKQQIENPEKPQRPPTWPANLLQAIGRYCFQTGNGLCFGDNIPWRKSLDGSTTSKLQNLLVAQDPQLGCIDTPTGTVDFCQIVGVFDDELEQASRWNGRGVLNFLRQDMQTGGDWLVTNMDRQMSVFELFPETLLNLQDDLEKQGSDLAGVNADFTFRELKPTKEVKEEVDFQALSEKCANDENNRQLTDTQMKREEPSFPQSMSMSSNSLHKSCPLDFQAQAPNCISLDGIEITLAPGVAKYLLLAIKDRIRHGRHFTFKAQHLALTLVAESVTGSAVTVNEPYGVLGYWIQVLIPDELVPRLMEDFRSAGLDEKCEPKERLELEWPDKNLKLIIDQPEPVLPMSLDAAPLKM
